Values joined by “and” are separate entries in the source; they are usually repeats but may differ in a detail not shown here. Identical values can stand only once. The inconclusive results got no clear call from the source; some entries with a clear call stand among them for comparison. For part of these data: Potencies beside an inconclusive call are fits to weak or partial responses and may not hold up. Active and inactive are the calls of the source. Calls come from the whole dose curve; as a rule, active = well fitted curve in the direction sought with a large enough effect; inconclusive = small, poorly fitted or top-dose-only effect, or another doubt; inactive = no such curve, though single readings can be large; an effect the other way counts as inactive or inconclusive.
Tests used:
[1] = qHTS Screen of the MIPE 4.0 Collection Against Ewings Sarcoma (RDES) (AID 1259252); note: nearly all actives have a fitted effect of over 35% in size; note: potency is the fitted concentration of half-maximal effect;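 for viability (percent of control): 100% = DMSO-treated cells and 0% = medium-only wells without cells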
Outline: (§1)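 Compound titrations go onto adherent log-phase cells 4 h after seeding, incubate 48 h at 37C, then CellTiter-Glo luminescence reports viability relative to DMSO and cell-free controls.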

[2] = qHTS Screen of the MIPE 4.0 Collection Against Ewings Sarcoma (EW8) (AID 1259255); note: nearly all actives have a fitted effect of over 35% in size; note: potency is the fitted concentration of half-maximal effect;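 for viability: 100% = DMSO-treated cells and 0% = medium-only wells without cells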
Outline: as §1

[3] = qHTS Screen of the MIPE 4.0 Collection Against Ewings Sarcoma (TC32) (AID 1259256); note: potency is the fitted concentration of half-maximal effect; nearly all actives have a fitted effect of over 45% in size
Outline: as §1

[4] = P-glycoprotein substrates identified in KB-8-5-11 adenocarcinoma cell line, qHTS therapeutic library screen (AID 1346987); note: potency is the fitted concentration of half-maximal effect; nearly all actives have a fitted effect of over 65% in size
Outline: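 Compounds are pinned in dose-response onto KB-8-5-11 cells (500 cells/well, colchicine-free medium) and left 72 h at 37 degree C. CellTiter-Glo luminescence then yields AC50 values.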

[5] = qHTS Assay for Identifying Gametocytocidal Compounds (AID 743244); note: potency is the fitted concentration of half-maximal effect;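 for max response: % is set by controls: 0 for no effect and ±100 for the full control effect; actives lower the fluorescent signal which means gametocytes are killed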; conditions: P. falciparum 3D7 stage III-V gametocytes, alamarBlue, 72 h; max response: active compounds read low
Outline: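 P. falciparum 3D7 stage III–V gametocytes (20,000 cells/well) were exposed to compounds for 72 h at 37 °C, 5% CO2. AlamarBlue was then added for 24 h; decreased resorufin fluorescence (Ex 525/Em 598 nm) indicated loss of viability.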

[6] = qHTS assay to identify small molecule inhibitors of chordoma cells - UCH-1 (AID 1259355); note: % is set by controls: 0 for no effect and ±100 for the full control effect; nearly all actives have a fitted effect of over 55% in size
Outline: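 A 48hr growth-inhibition format: each drug tested at 15 concentrations together with added auranofin, camptothecin, doxorubicin, rubitecan and topotecan, with cell viability quantified as CellTiter-Glo luminescence.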

[7] = Identifying Small Molecule Inhibitors of Pancreatic Cancer Stem Cells (A2780, Spheroid) (AID 1259357); conditions: Potency: A2780 spheroid viability; viability (percent of control): at 46.1 µM (top of the series);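 note: compound exposure lasted 48 h before the ATP luminescence read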; note: potency is the fitted concentration of half-maximal effect;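 for viability (percent of control): 100% = DMSO treated cells and 0% = wells without cells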
Outline: (§2)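 Spheroids grown 14 days in stem cell media on hydrogel-coated nonadherent plates; 2D lines seeded directly. Compounds added after 4 h attachment, 48 h at 37C, 5% CO2; CellTiter-Glo luminescence normalized to DMSO (no inhibition) and no-cell wells (full inhibition).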

[8] = Identifying Small Molecule Inhibitors of Pancreatic Cancer Stem Cells (SN12C, Spheroid) (AID 1259360); conditions: Potency: SN12C spheroid viability; note: potency is the fitted concentration of half-maximal effect;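 for viability (% of control): 100% = DMSO-treated cells and 0% = wells without cells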
Outline: as §2

[9] = Identifying Small Molecule Inhibitors of Pancreatic Cancer Stem Cells (Panc1, Adherent) (AID 1259362); conditions: Potency: viability; viability, % of control: at 46.1 µM (top of the series); note: potency is the fitted concentration of half-maximal effect;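 for viability, % of control: compound exposure lasted 48 h before the viability read; plate controls were DMSO-treated cells for no effect and cell-free media wells for full effect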
Outline: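 Cytotoxicity read by CellTiter-Glo luminescence after 48 h compound exposure at 37C; percent activity scaled between DMSO-treated cells and cell-free wells. Spheroid formats used cells pre-formed 14 days in stem cell media on hydrogel.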

[10] = P-glycoprotein substrates identified in KB-3-1 adenocarcinoma cell line, qHTS therapeutic library screen (AID 1346986); note: nearly all actives have a fitted effect of over 60% in size;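 note: potency is the fitted concentration of half-maximal effect; potency is for cytotoxicity meaning loss of cell viability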
Outline: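 72 h cell-killing screen, 500 cells/well, CellTiter-Glo luminescence. Paired lines KB-3-1/KB-8-5-11; P-gp dependence checked by tariquidar co-treatment and HEK-293 MDR-19 versus empty-vector cells.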

[11] = Identifying Small Molecule Inhibitors of Pancreatic Cancer Stem Cells (A278, Adherent) (AID 1259361); conditions: viability (% of control): at 46.1 µM (top of the series);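 note: 100% = DMSO-treated cells and 0% = cell-free media-only wells; nearly all actives have a fitted effect of over 35% in size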
Outline: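 Viability is scored by CellTiter-Glo luminescence 48 h after dosing, expressed as percent activity against vehicle and no-cell references. Spheroid formats rely on cells cultured 14 days in stem cell media beforehand.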
Tags give direction and shape of the fitted curve.

NC(=O)c1ccc2nc(-c3ccc(Oc4ccc(Cl)cc4)cc3)[nH]c2c1
Potency [1]: inconclusive: 0.0935 µM [inhibitor, partial curve] | Potency [2]: inconclusive: 0.0264 µM [inhibitor, full curve] | Potency [3]: inconclusive: 0.0132 µM [inhibitor, full curve] | Potency [4]: inconclusive: 20.9 µM [inhibitor, partial curve] and inconclusive: 18.4 µM [inhibitor, partial curve] and inconclusive: 8.2 µM [inhibitor, partial curve]

O=C(OC1C[C@H]2CC[C@@H](C1)[N+]21CCCC1)C(O)(c1ccccc1)c1ccccc1 (stereo partly specified)
max response [5]: inactive: -10.3% | Potency [1]: inactive | Potency [2]: inactive | Potency [6]: inactive

NC(=O)c1nnn(Cc2cc(Cl)c(C(=O)c3ccc(Cl)cc3)c(Cl)c2)c1N
Potency [1]: inconclusive: 20.9 µM [inhibitor, partial curve] | Potency [2]: active: 26.4 µM | Potency [4]: inconclusive: 23.5 µM [inhibitor, partial curve]

O=C(C1CC1)N1CC[C@@H](Cn2c(-c3ccc(-c4ccc5occc5c4)cc3)nc3cnccc32)C1
Potency [1]: inactive | Potency [2]: active: 13.2 µM | Potency [7]: active: 0.469 µM | Potency [8]: inconclusive: 20.9 µM [cytotoxic, single point] | Potency [9]: inconclusive: 0.059 µM [cytotoxic, full curve, poor fit]

COc1cc(F)c(F)c(Nc2ccc(I)cc2F)c1NS(=O)(=O)C1(C[C@H](O)CO)CC1
Potency [1]: active: 20.9 µM | Potency [2]: inconclusive: 23.5 µM [inhibitor, single point] | Potency [7]: inactive | Potency [8]: inactive | Potency [9]: inconclusive: 23.5 µM [cytotoxic, single point] | Potency [10]: inactive | Potency [4]: inconclusive: 29.1 µM [inhibitor, single point]

COc1c(O)cc2c(c1O)[C@@H]1O[C@H](CO)[C@@H](O)[C@H](O)[C@H]1OC2=O
Potency [1]: inactive | Potency [2]: inactive | Potency [6]: inactive | Potency [4]: inconclusive: 26.4 µM [inhibitor, single point]

COc1ccc(CC2SC(=O)NC2=O)cc1C(=O)NCc1ccc(C(F)(F)F)cc1 (stereo unspecified)
Potency [1]: inactive | Potency [2]: inactive | Potency [7]: inconclusive: 0.0047 µM [rising, full curve, poor fit] | IC50 (viability decrease) [11]: inactive | viability, % of control [9]: inconclusive: 117%

Nc1ncnc2c1nc(Cl)n2[C@@H]1O[C@H](CO)[C@@H](O)[C@@H]1O
Potency [1]: inconclusive: 26.4 µM [inhibitor, single point] | Potency [2]: inconclusive: 23.5 µM [inhibitor, partial curve] | Potency [3]: active: 20.9 µM | Potency [4]: inconclusive: 33.2 µM [inhibitor, single point]

NC12CC3CC(CC(C3)C1)C2
Potency [5]: inconclusive: 17.8 µM [inhibitor, single point] | Potency [1]: inconclusive: 16.6 µM [inhibitor, partial curve] | Potency [2]: inconclusive: 33.2 µM [inhibitor, single point] | Potency [3]: inconclusive: 26.4 µM [inhibitor, single point]

CC1(C)CCC(CN2CCN(c3ccc(C(=O)NS(=O)(=O)c4ccc(NCC5CCOCC5)c([N+](=O)[O-])c4)c(Oc4cnc5[nH]ccc5c4)c3)CC2)=C(c2ccc(Cl)cc2)C1
Potency [1]: inconclusive: 23.5 µM [inhibitor, single point] | Potency [2]: inconclusive: 37.2 µM [inhibitor, single point] | Potency [3]: inconclusive: 5.9 µM [inhibitor, partial curve, poor fit] | Potency [4]: inconclusive: 14.2 µM [inhibitor, partial curve, poor fit]

COc1cc(Nc2nc3ccccc3nc2NS(=O)(=O)c2ccc(NC(=O)c3ccc(C)c(OC)c3)cc2)cc(OC)c1
Potency [1]: active: 18.7 µM | Potency [2]: inconclusive: 18.7 µM [inhibitor, partial curve] | Potency [10]: inconclusive: 25.9 µM [inhibitor, single point] | Potency [4]: inconclusive: 20.6 µM [inhibitor, single point]

CCCCCCCCCC(=O)N[C@@H](Cc1c[nH]c2ccccc12)C(=O)N[C@H](CC(N)=O)C(=O)N[C@@H](CC(=O)O)C(=O)N[C@@H]1C(=O)NCC(=O)N[C@@H](CCCN)C(=O)N[C@@H](CC(=O)O)C(=O)N[C@H](C)C(=O)N[C@@H](CC(=O)O)C(=O)NCC(=O)N[C@H](CO)C(=O)N[C@@H]([C@@H](C)CC(=O)O)C(=O)N[C@@H](CC(=O)c2ccccc2N)C(=O)O[C@@H]1C
Potency [1]: inactive | Potency [2]: inactive | Potency [10]: inactive

Reference: PubChem BioAssay (NCATS)
